Holding throughout (assay): Primary Screen for Target Class Profiling of Small Molecule Inhibitors of Methyltransferases
Test [1] addresses Glycine N-methyltransferase (Homo sapiens) (UniProt Q14749). Conditions: purified enzyme, MTase-Glo SAH luminescence; measured here: GNMT inhibition; at 40 µM; stronger effect = lower value. The procedure, abridged: (§1)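 Each enzyme was reacted with SAM and its substrate, with compounds tested once at 40 uM; SAH formed was read by MTase-Glo luminescence.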
The target of test [2] is Guanidinoacetate N-methyltransferase (Homo sapiens) (UniProt Q14353). Conditions: purified enzyme, MTase-Glo SAH luminescence; measured here: GAMT inhibition; at 40 µM; stronger effect = lower value. In short, it runs like this:
as §1

Test [3] addresses Histamine N-methyltransferase (Homo sapiens) (UniProt P50135). The settings on record: purified enzyme, MTase-Glo SAH luminescence; measured here: HNMT inhibition; at 40 µM; stronger effect = lower value. In short, it runs like this:
as §1

For test [4], the target named is Nicotinamide N-methyltransferase (Homo sapiens) (UniProt P40261). Conditions: purified enzyme, MTase-Glo SAH luminescence; measured here: NNMT inhibition; at 40 µM; stronger effect = lower value. In short, it runs like this: as §1
Test [5] addresses Phenylethanolamine N-methyltransferase (Homo sapiens) (UniProt P11086). Conditions: purified enzyme, MTase-Glo SAH luminescence; measured here: PNMT inhibition; at 40 µM; stronger effect = lower value. The procedure, abridged:
as §1

The structures appear in SMILES notation. Some of the results follow. Further columns of the screen follow, without active or inactive calls.
% is scaled to controls: 0 for no effect and ±100 for the full control effect.

With `COCCCNC(=O)Cn1c(=O)oc2cc(S(=O)(=O)N3CC(C)CC(C)C3)ccc21` (stereo not given), the activity change, negative = inhibition in test [1] was -1.76%; in test [2], 0%; in test [3], 8.76%; in test [4], 17.6%; in test [5], -0.092%.
In the case of `COc1cccc(CNc2nc3c(-c4ccc(Cl)cc4)nnn3c3ccccc23)c1`, the activity change, negative = inhibition in test [1] is -3.42%; in test [2], 3.65%; in test [3], -4.9%; in test [4], 1.63%; in test [5], -4.07%.
As for `CC(C)CCn1c(=O)c2ccc(C(=O)NC3CCCC3)cc2n2c(=O)n(CC(=O)Nc3ccccc3)nc12`, the activity change, negative = inhibition in test [1] is 2.98%; in test [2], 0%; in test [3], 5.16%; in test [4] it was -2.28%; in test [5] it was -4.33%.
The matching figures for `COc1ccc(-c2cc3n(n2)CC(C)(C(=O)NCc2ccccc2)N(Cc2ccccc2F)C3=O)cc1` (stereo not given): 5.23%, 3.86%, 5.05%, 1.1% and 1.24%.
With `COCCN(C)C[C@@H]1CN(C(=O)c2nc(-c3ccccc3)[nH]c2C)C[C@@H]1CO`, the activity change, negative = inhibition in test [1] is -5.55%; in test [2] it was -6.67%; in test [3], -4.41%; in test [4] it was -6.54%; in test [5] it was -3.31%.
The matching figures for `O=C(CCc1nnc2n(Cc3ccccc3)c(=O)c3ccccc3n12)NCCc1ccc(Cl)cc1`: -9.13%, 5.34%, 4.59%, 7.05% and -1.28%.
As for `CC(C)CNC(=O)c1ccc2c(=O)n(CC(C)C)c3nn(CC(=O)NC(C)C)c(=O)n3c2c1`, the activity change, negative = inhibition is 4.47% in test [1]; 0.046% in test [2]; 5.03% in test [3]; 7.41% in test [4]; 3.09% in test [5].
With `CCOC(=O)c1cc2n(n1)CC(C)(C(=O)NC1CCC(C)CC1)N(c1ccc(NC(C)=O)cc1)C2=O` (stereo not given), the activity change, negative = inhibition in test [1] is -2.67%; in test [2], 1.85%; in test [3], -0.702%; in test [4] it was -2.46%; in test [5] it was -2.52%.
As to `Cc1cc(C)cc(N2C(=O)c3cc4sccc4n3CC2(C)C(=O)NC2CCCCC2C)c1` (stereo not given), the activity change, negative = inhibition was -6.51% in test [1]; 5.94% in test [2]; -4.22% in test [3]; -2.71% in test [4]; -3.59% in test [5].
Regarding `CC(C)n1c(=O)c2ccc(C(=O)NC3CCCC3)cc2n2c(=O)n(CC(=O)c3ccc(Cl)cc3)nc12`, the activity change, negative = inhibition in test [1] is -2.1%; in test [2], -10.5%; in test [3] it was 2.76%; in test [4] it was -8.39%; in test [5], -2.79%.
As for `CN(C)Cc1c(C(=O)NCCOc2ccc(C(=O)NO)cc2)oc2ccccc12`, the activity change, negative = inhibition in test [1] was 0.967%; in test [2], 2.61%; in test [3], -20.8%; in test [4], -5.67%; in test [5], 6.88%.
`CC(C)NCC(O)COc1ccc(COCCOC(C)C)cc1` (stereo not given): the activity change, negative = inhibition is -12.9% in test [1]; -1.37% in test [2]; -3.84% in test [3]; -12.4% in test [4]; -1.92% in test [5].
On to `COC(=O)c1cc2n(n1)CC(C)(C(=O)NC1CCCCCC1)N(Cc1ccc(C)cc1)C2=O` (stereo not given), for which the activity change, negative = inhibition in test [1] was -3.34%; in test [2], 3.76%; in test [3], 1.42%; in test [4] it was -5.72%; in test [5] it was -3.46%.
Regarding `CC1CCC(NC(=O)c2ccc3c(=O)nc4c(-c5cccc(F)c5)n[nH]n4c3c2)CC1` (stereo not given), the activity change, negative = inhibition was -11.8% in test [1]; 5.57% in test [2]; -4.28% in test [3]; 1.46% in test [4]; -2.42% in test [5].
In the case of `CC1(C)CC(=O)c2c(C(F)(F)F)nn(-c3ccc(C(N)=O)c(NC4CCC(OC(=O)CN)CC4)c3)c2C1` (stereo not given), the activity change, negative = inhibition in test [1] is -12.2%; in test [2], -17.2%; in test [3] it was 5.41%; in test [4], -56.4%; in test [5], -7.01%.
As for `CCc1cc2c(cc3n2CC(C)(C(=O)NC2CCCCCC2)N(Cc2ccc(OC)cc2)C3=O)s1` (stereo not given), the activity change, negative = inhibition in test [1] is -7.06%; in test [2], 0.015%; in test [3], -3.21%; in test [4], -3.71%; in test [5] it was -4.32%.
In the case of `O=C(O)CCc1cc2ccoc2cc1O[C@@H]1O[C@H](CO[C@@H]2OC[C@](O)(CO)[C@H]2O)[C@@H](O)[C@H](O)[C@H]1O`, the activity change, negative = inhibition in test [1] was 0%; in test [2], 7.61%; in test [3], 8.72%; in test [4] it was -6.11%; in test [5] it was 3.09%.
As for `NCCCNc1ccc(Nc2nccc(Nc3cc(C4CC4)[nH]n3)n2)cc1`, the activity change, negative = inhibition in test [1] is -19.1%; in test [2], -0.147%; in test [3], -86.9%; in test [4] it was -44.7%; in test [5] it was -15.4%.
As for `O=C(Cn1c(=O)oc2cc(S(=O)(=O)N3CCCC3)ccc21)NCC1COc2ccccc2O1` (stereo not given), the activity change, negative = inhibition in test [1] was -4.45%; in test [2] it was 3.62%; in test [3], -3.68%; in test [4] it was -0.986%; in test [5] it was -12.9%.
With `COc1ccc2c(c1)CC(NS(=O)(=O)c1ccc(Cl)cc1)CO2` (stereo not given), the activity change, negative = inhibition in test [1] was -9.66%; in test [2], -1.99%; in test [3], 0.066%; in test [4], -4.28%; in test [5], -2.62%.
In the same order, the values of `CC(=O)N1CCn2c(nnc2-c2ccccc2)C1` are -4.71%, -8.66%, -2.54%, -14.4% and -3.99%.
`CCc1ccc(N2C(=O)c3cc4occc4n3CC2(C)C(=O)NC2CCCCC2C)cc1` (stereo not given): the activity change, negative = inhibition is -8.19% in test [1]; 0.433% in test [2]; -4.64% in test [3]; -0.314% in test [4]; -5.18% in test [5].
On to `CCOC(=O)c1cc2n(n1)CC(C)(C(=O)NC1CCCCC1)N(CCCc1ccccc1)C2=O` (stereo not given), for which the activity change, negative = inhibition in test [1] was 5.42%; in test [2], 0%; in test [3], -0.738%; in test [4], 1.5%; in test [5], 6.61%.
In the same order, the values of `O=C(NCc1ccc2c(c1)OCO2)c1csc(N2CCN(c3ccc(F)cc3)CC2)n1` are 0.441%, -0.359%, -1.47%, -5.25% and -2.55%.
In the case of `O=C(Cn1ccc2cc(S(=O)(=O)N3CCCC3)ccc21)NCc1cccc(Br)c1`, the activity change, negative = inhibition was 2.29% in test [1]; 0% in test [2]; 2.04% in test [3]; -6.84% in test [4]; -12.8% in test [5].
With `COc1ccc(C)cc1NC(=O)Cn1c(=O)oc2cc(S(=O)(=O)N3CC(C)CC(C)C3)ccc21` (stereo not given), the activity change, negative = inhibition was 14.9% in test [1]; 0% in test [2]; 11.5% in test [3]; 4.76% in test [4]; 2.03% in test [5].
`Cc1cc2c(cc1S(=O)(=O)Nc1ccc(F)c(F)c1)n(C)c(=O)n2C`: the activity change, negative = inhibition in test [1] stood at 6.82%; in test [2] it was 0%; in test [3], 6%; in test [4] it was 3.96%; in test [5], 2.14%.
For the compound `CCN1C(=O)CCc2cc(NC(=O)CC(C)C)ccc21`, the activity change, negative = inhibition in test [1] was -4.2%; in test [2], -2.89%; in test [3], 0.182%; in test [4] it was -8.01%; in test [5], -5.19%.

For the origin of these results see PubChem BioAssay AID1745853 (National Center for Advancing Translational Sciences (NCATS), 2022).
